# Some of the results follow.
# Tested on: T1, C. trachomatis L2/434/Bu expressing GFP (CTL2-GFP)
# T1 construct: L2/434/Bu GFP intracellular growth in HeLa cells
# Design: species or system HeLa; C. trachomatis total inclusion area by high-content imaging, normalised to DMSO
# Conditions: total inclusion area; 28.5 h, 10 µM; inhibitor
# Procedure, shortened: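 After bulk GFP and resorufin fluorescence reads, cells were fixed, stained with Hoechst and imaged by high-content microscopy. Inclusion area and number (GFP) stood in for chlamydial growth, nuclei count (Hoechst) for host cell viability. MICs were derived as for the bulk readout.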
row,Compound,% of control remaining
1,Cc1nc(=O)c(-c2ccccc2)c(C)n1-c1ccc(OCC(=O)O)cc1 [CBK286615],104.889
2,Cn1c(=O)c2c(ncn2CC(=O)Nc2ccc(Cl)cc2Cl)n(C)c1=O [CBK133227],95.1508
3,Cc1nc(-c2ccco2)nc2sc(C(=O)NCc3nnc4ccccn34)c(C)c12 [CBK297773],110.966
4,CCOC(=O)C(C)N1C(=O)S/C(=C/c2ccc(Oc3ccc([N+](=O)[O-])cn3)cc2)C1=O (centres unmarked) [CBK265114],133.808
5,CCN1CCN(C(=O)CCNC(=O)c2cccc(OC)c2)CC1 [CBK307580],93.3922
6,Cc1ccc(COCSc2nc3ccccc3n2CC(O)CO)cc1C (centres unmarked) [CBK021195],74.7647
7,CC(=O)OC(C(=O)N1CCCCCC1)c1ccc(Br)cc1 (centres unmarked) [CBK007027],76.8086
8,CC(C)NC(=O)Cn1nc(-c2cc3c(s2)CCC3)oc1=O [CBK283801],104.353
9,Cc1cc(OC(C)C(=O)N(Cc2cccs2)C2CCS(=O)(=O)C2)cc(C)c1Cl (centres unmarked) [CBK293962],105.998
10,COc1nc(-c2ccc(N(C)C)nc2)nn1C [CBK307317],44.6521
11,Cc1nc(SCc2cccc(C(=O)O)c2)nc2c1CCCC2 [CBK266997],95.3959
12,O=C(Nc1ccccc1-c1nc2ccccc2s1)c1cc(Br)ccc1Cl [CBK266280],148.685
13,O=C(Cn1cnc2ccc([N+](=O)[O-])cc2c1=O)Nc1ccc(C(=O)O)cc1 [CBK297542],112.715
14,CCN(Cc1ccncc1)C(=O)Nc1ccc(N(CC)CC)cc1 [CBK155141],92.4703
15,O=c1c(N2CCNCC2)nccn1CCc1cccs1 [CBK050382T],71.3946
16,Oc1ccc(CCNc2ncnc3[nH]cnc23)cc1 [CBK017724C],86.4963
17,CCOC(=O)Cn1c(CCC(=O)O)ccc1-c1ccc(F)cc1 [CBK265916],118.115
18,COc1ccccc1N1CCN(C[C@H]2C[N@@]3CC[C@H]2C[C@@H]3CNS(C)(=O)=O)CC1 [CBK288770],109.568
19,COC(=O)C(CC(=O)c1ccc(Br)cc1)n1cccn1 (centres unmarked) [CBK269338],93.3172
20,O=c1oc2ccccc2n1C1CCN(Cc2nc3ccccc3n2Cc2ccccc2)CC1 [CBK286176],99.98
21,COc1ccc(OC(=O)C2COc3ccccc3O2)cc1 (centres unmarked) [CBK131816],94.4414
22,Cc1cccc(NC(=O)c2cc(NC(=O)C3CCCCC3C(=O)O)ccc2N2CCCCC2)c1 (centres unmarked) [CBK267332],90.4934
23,CC(C)NC(=S)NC(=O)C1CCC1 [CBK010718],68.2714
24,COc1ccccc1NC(=S)NCCN(C)C [CBK265343],81.8667
25,O=C(O)CSc1nc2nc3c(cc2c(=O)n1Cc1ccccc1)CCCC3 [CBK286662],78.2693
26,Cn1cccc1CNCc1ccccn1 [CBK269818C],100.916
27,Cc1ccc(C2(CN3CCC(NC(=O)C4CC4)CC3)CC2)cc1 [CBK285359],87.4294

row,Compound,% of control remaining
1,O=C(c1ccco1)N1CCN(c2cc(-c3ccccc3Oc3ccccc3)ncn2)CC1 [CBK037817],101.654
2,COc1cnc(-c2ccsc2)c(NC(=O)c2cc(C)oc2C)n1 [CBK145294],90.8681
3,Cc1nn(C)cc1S(=O)(=O)Nc1ccc2c(ccn2C)c1 [CBK282806],108.128
4,CCC(NC(=O)Nc1ccc(N2CCOCC2)nc1)c1cnn(CC)c1 (centres unmarked) [CBK305172],121.486
5,Cc1ccc(NC(=O)CC2Nc3ccccc3OC2=O)cc1C (centres unmarked) [CBK270214],94.3496
6,CNC(=O)CSc1ncnc2c1cnn2-c1ccc(F)cc1 [CBK287633],101.873
7,Cn1c(/N=N/c2c(-c3ccccc3)n(C)c3ccccc23)nc2ccccc21 [CBK262114],92.0607
8,Cc1noc(C)c1NC(=O)c1cscn1 [CBK200397],100.44
9,O=C(NCc1cccnc1)c1ccc(N2CCN(C(=O)c3ccccc3C(F)(F)F)CC2)nn1 [CBK153215],65.7387
10,COc1ccc(Cn2c(=O)n(S(=O)(=O)c3ccc(-c4cc(C(F)(F)F)n(C)n4)s3)c3ccccc32)cc1 [CBK106552],94.3909
11,Nc1nonc1-n1nnc(C(=O)O)c1-c1cccs1 [CBK266674],80.5732
12,CCOC(=O)C1CCN(S(=O)(=O)c2c(C)noc2C)CC1 [CBK051112],71.6471
13,O=C(c1ccc(NC2CC2)nc1)N1CCC(CN2CCOCC2)CC1 [CBK305970],34.5237
14,Cc1cc(C)nc(Nc2noc(-c3ccccc3)n2)n1 [CBK269971],73.6402
15,CC(=O)OCc1ccc(CN2CCCCCC2c2cc(C)no2)o1 (centres unmarked) [CBK283007],116.199
16,COc1ccc2[nH]c3c(c2c1)CCNC31CCN(Cc2ccc(S(C)(=O)=O)cc2)CC1 [CBK039753],92.2588
17,CCCn1c(O)cc(=O)nc1SCC(=O)NCc1ccc(OC)c(OC)c1 [CBK295592],92.5056
18,COc1ccc(/N=C2\S[C@H]3[C@H]([C@@H](O)[C@H](O)C[C@@H]3C(N)=O)N2Cc2cccs2)cc1 [CBK288943],92.5724
19,Nc1ncc(-c2ccc(C(=O)N3CCOCC3)cc2)nc1C(=O)NC1CCCC1 [CBK149155],79.6254
20,COc1ccc(-c2nnc(SCCC(=O)O)[nH]2)cc1 [CBK300506],109.618
21,NS(=O)(=O)c1ccc(C(=O)Nc2cnc(-c3ccc(F)cc3)c(-c3ccsc3)n2)cc1 [CBK036998],124.97
22,O=C(CCc1nc2sc3c(c2c(=O)[nH]1)CCCC3)N1CCCC1 [CBK306069],51.9255
23,NC(=O)C1(Cc2ccccc2-c2ccccc2)CCN(C(=O)CCc2ccccc2)CC1 [CBK285595],99.2958
24,COc1ccc(C(C)C)cc1-c1cncc(N2CCN(c3ccccc3C#N)CC2)n1 [CBK037927],83.5928
25,Cc1ccc(S(=O)(=O)NCCNc2ccc(C(F)(F)F)cc2[N+](=O)[O-])cc1 [CBK264945],104.532
26,CC(C)[C@H]1CN(Cc2ccco2)CCN1Cc1ccccn1 [CBK284275],88.1973
27,O=c1c2sccc2[nH]c(=S)n1CCc1ccccc1 [CBK288486],94.9331

row,Compound,% of control remaining
1,O=C1c2ccccc2C(=O)N1Cc1ccc(S(=O)(=O)NCc2ccc3c(c2)OCO3)cc1 [CBK264180],108.727
2,O=c1cc(N2CCCCC2)cnn1Cc1nccs1 [CBK307678],76.1032
3,OCCCNC(=S)Nc1ccc(Cl)cc1Cl [CBK265264],105.405
4,COc1ccc(-n2nc3cc(C)c(NC(=O)c4ccc(-c5ccc([N+](=O)[O-])cc5OC)o4)cc3n2)cc1 [CBK263766],113.042
5,CCS(=O)(=O)N1CCC2(C=Cc3cc(F)ccc3O2)CC1 [CBK284747],92.9564
6,CCCC1COC(c2ccc(C#N)cc2)OC1 (centres unmarked) [CBK033941],75.1792
7,COc1ccccc1C(=O)N1CCC(Cc2ccc(-c3ccccc3)cc2)(C(N)=O)CC1 [CBK285774],101.224
8,Cc1nc2c(OCC(=O)c3ccc(Cl)cc3Cl)cccn2c1N(C)CC1CC1 [CBK147294],107.025
9,Cn1nc(C2CCN(C(=O)C3CCCC3)CC2)c2cccnc21 [CBK284899],56.7332
10,O=C(NCC(O)c1ccccc1)c1ccc(Cl)c(S(=O)(=O)N2CCCCC2)c1 (centres unmarked) [CBK269197],71.2395
11,CC(c1ccc(F)c(F)c1)N(C)C(=O)CN1CCCc2occc2C1 (centres unmarked) [CBK304456],42.5253
12,CCOC(=O)c1c(C)n(-c2ccc(OC)cc2)c2ccc(O)c(CN(C)C)c12 [CBK261609C],99.6711
13,CC(=O)Nc1ccc(CN2CCCCCC2c2cc(C)no2)cc1 (centres unmarked) [CBK285415],102.362
14,CCOc1ccc(-c2cncc(Nc3ccc(C#N)cc3)n2)cc1 [CBK065862],83.2839
15,COc1ccccc1-c1noc(CCCC(=O)Nc2cccnc2)n1 [CBK268848],98.3145
16,CCCCn1c(SCC(=O)NCC2(c3ccc4c(c3)OCCO4)CCCC2)n[nH]c1=O [CBK296736],115.611
17,Cc1sc2ncn(Cc3c(Cl)cccc3Cl)c(=O)c2c1C [CBK265355],92.8922
18,CCn1cc(C2CN(S(=O)(=O)c3c(C)c(C)cc(C)c3C)CCO2)cn1 (centres unmarked) [CBK306171],53.1835
19,C[C@H]1CN([C@H]2C[C@@H](O)[C@@H](CO)O2)C(=O)NC1=O [CBK201206],90.1031
20,CCc1[nH]c2ccc(C(=O)NCCn3ccnc3C)cc2c1C [CBK282505],111.778
21,Cc1cccc(C)c1N(C1CCNCC1)S(=O)(=O)c1ccc2c(c1)CCO2 [CBK153668T],106.5
22,c1cncc(-c2cncc(NCCc3c[nH]c4ccccc34)n2)c1 [CBK065186],91.8411
23,NC(=O)CSc1nnc(-c2cc3ccccc3o2)n1Cc1ccccc1 [CBK268964],86.6173
24,Cc1ccc(CN2C(=O)CC(Sc3ncccc3C(=O)O)C2=O)cc1 (centres unmarked) [CBK270006],85.5825
25,CCOc1ccccc1NC(=O)NC(=O)C1CCN(C(C)c2ccc(Cl)cc2)CC1 (centres unmarked) [CBK034899],92.5028
26,Nc1nc(CN2C(=O)c3ccccc3C2=O)n[nH]1 [CBK266655],90.864
